# According to the supplement of paper PMC8728848:
# Some of the results follow.
# Legend:
# Experiment in all cases: glycan array binding signal (z-score within array); higher = stronger binding
# Settings in all cases: glycan notation: IUPAC condensed, linker removed
# [1] = target: Gal3S(b1-4)[Fuc(a1-3)]Glc
# Outline: (§1)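 Glycan array data came from 3228 arrays in the Consortium for Functional Glycomics database, and only arrays with an available protein sequence were kept. Glycan names were put into IUPAC-condensed notation, and columns mapping to the same glycan were averaged. The binding signal is a within-array Z-score, averaged across arrays of one protein sequence run at different concentrations or buffers and across linkers. A negative Z-score can be read as non-binding.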
# [2] = target: Gal3S(b1-4)[Fuc(a1-3)]Glc6S
# Outline: as §1
# [3] = target: Gal3S4S(b1-4)GlcNAc
# Outline: as §1
# [4] = target: Gal3S6S(b1-4)GlcNAc
# Outline: as §1
# [5] = target: Gal3S6S(b1-4)GlcNAc6S
# Outline: as §1
# [6] = target: Gal4S(b1-4)GlcNAc
# Outline: as §1
# [7] = target: Gal4S6S(b1-4)GlcNAc
# Outline: as §1
# [8] = target: Gal6S(b1-3)GlcNAc
# Outline: as §1
# [9] = target: Gal6S(b1-3)GlcNAc6S
# Outline: as §1
# [10] = target: Gal6S(b1-4)Glc
# Outline: as §1
# [11] = target: Gal6S(b1-4)Glc6S
# Outline: as §1
# [12] = target: Gal6S(b1-4)GlcNAc
# Outline: as §1
# [13] = target: Gal6S(b1-4)GlcNAc6S
# Outline: as §1
# [14] = target: GalNAc(a1-3)Gal
# Outline: as §1
# [15] = target: GalNAc(a1-3)GalNAc
# Outline: as §1
# [16] = target: GalNAc(a1-3)GalNAc(a1-3)Gal(a1-4)Gal(b1-4)GlcNAc
# Outline: as §1
# [17] = target: GalNAc(a1-3)GalNAc(b1-3)Gal(a1-4)Gal(b1-4)Glc
# Outline: as §1
# [18] = target: GalNAc(a1-3)GalNAc(b1-3)Gal(a1-4)Gal(b1-4)GlcNAc
# Outline: as §1
# [19] = target: GalNAc(b1-3)Gal
# Outline: as §1
# [20] = target: GalNAc(b1-3)Gal(a1-4)Gal(b1-4)GlcNAc
# Outline: as §1
# [21] = target: GalNAc(b1-3)Gal(a1-4)Gal(b1-4)GlcNAc(b1-3)Gal(b1-4)Glc
# Outline: as §1
# [22] = target: GalNAc(b1-3)Gal(a1-6)Gal(b1-4)Glc
# Outline: as §1
# [23] = target: GalNAc(b1-3)GalNAc
# Outline: as §1
# [24] = target: GalNAc(b1-4)Gal(b1-4)Glc
# Outline: as §1
# [25] = target: GalNAc(b1-4)GlcNAc
# Outline: as §1
# [26] = target: GalNAc(b1-4)GlcNAc(b1-2)Man(a1-3)[GalNAc(b1-4)GlcNAc(b1-2)Man(a1-6)]Man(b1-4)GlcNAc(b1-4)GlcNAc
# Outline: as §1
# [27] = target: GalNAc(b1-6)GalNAc
# Outline: as §1
# [28] = target: Glc(a1-4)Glc
# Outline: as §1
# [29] = target: Glc(a1-4)Glc(a1-4)Glc(a1-4)Glc
# Outline: as §1
# [30] = target: Glc(a1-6)Glc(a1-6)Glc
# Outline: as §1
# [31] = target: Glc(a1-6)Glc(a1-6)Glc(a1-6)Glc
# Outline: as §1
# [32] = target: Glc(b1-4)Glc
# Outline: as §1
# [33] = target: Glc(b1-6)Glc
# Outline: as §1
# [34] = target: GlcA(b1-3)Gal
# Outline: as §1
# [35] = target: GlcA(b1-3)GlcNAc
# Outline: as §1
# [36] = target: GlcA(b1-6)Gal
# Outline: as §1
# [37] = target: GlcNAc(a1-3)Gal(b1-4)GlcNAc
# Outline: as §1
# [38] = target: GlcNAc(a1-4)Gal(b1-3)GlcNAc
# Outline: as §1
binder,measurement,setting,value
"ConA (Canavalia ensiformis), P02866 (protein) MAISKKSSLFLPIFTFITMFLMVVNKVSSSTHETNALHFMFNQFSKDQKDLILQGDATTGTDGNLELTRVSSNGSPQGSSVGRALFYAPVHIWESSAVVASFEATFTFLIKSPDSHPADGIAFFISNIDSSIPSGSTGRLLGLFPDANVIRNSTTIDFNAAYNADTIVAVELDTYPNTDIGDPSYPHIGIDIKSVRSKKTAKWNMQNGKVGTAHIIYNSVDKRLSAVVSYPNADSATVSYDVDLDNVLPEWVRVGLSASTGLYKETNTILSWSFTSKLKSNEIPDIATVV",glycan array binding signal (z-score),[1],-0.21
same,glycan array binding signal (z-score),[2],-0.137
same,glycan array binding signal (z-score),[3],-0.275
same,glycan array binding signal (z-score),[4],-0.287
same,glycan array binding signal (z-score),[5],-0.193
same,glycan array binding signal (z-score),[6],-0.272
same,glycan array binding signal (z-score),[7],-0.282
same,glycan array binding signal (z-score),[8],-0.152
same,glycan array binding signal (z-score),[9],-0.273
same,glycan array binding signal (z-score),[10],-0.287
same,glycan array binding signal (z-score),[11],-0.223
same,glycan array binding signal (z-score),[12],-0.263
same,glycan array binding signal (z-score),[13],-0.21
same,glycan array binding signal (z-score),[14],-0.275
same,glycan array binding signal (z-score),[15],-0.271
same,glycan array binding signal (z-score),[16],-0.224
same,glycan array binding signal (z-score),[17],-0.201
same,glycan array binding signal (z-score),[18],-0.203
same,glycan array binding signal (z-score),[19],-0.229
same,glycan array binding signal (z-score),[20],-0.284
same,glycan array binding signal (z-score),[21],-0.252
same,glycan array binding signal (z-score),[22],-0.234
same,glycan array binding signal (z-score),[23],-0.281
same,glycan array binding signal (z-score),[24],-0.193
same,glycan array binding signal (z-score),[25],-0.264
same,glycan array binding signal (z-score),[26],-0.123
same,glycan array binding signal (z-score),[27],-0.234
same,glycan array binding signal (z-score),[28],0.407
same,glycan array binding signal (z-score),[29],-0.192
same,glycan array binding signal (z-score),[30],0.334
same,glycan array binding signal (z-score),[31],-0.21
same,glycan array binding signal (z-score),[32],-0.158
same,glycan array binding signal (z-score),[33],-0.286
same,glycan array binding signal (z-score),[34],-0.293
same,glycan array binding signal (z-score),[35],0.292
same,glycan array binding signal (z-score),[36],-0.182
same,glycan array binding signal (z-score),[37],-0.258
same,glycan array binding signal (z-score),[38],-0.224
